A word on the Kd: it is the equilibrium constant for the complex coming apart. What is called koff is the rate constant with which the complex falls apart.

In the experiment the target is recombinant SARS-CoV-2 RBD (His-tagged SARS-CoV-2 RBD fusion protein) (SARS-CoV-2).

“And” between values parts separate entries of the source, which are not always exact repeats. Equal entries are not always repeated.

B1: CLEC2.Fc protein (Fc fusion)
chain: not shown
In the case of B1, the Kd is 7.92 µM and 7.48 µM; the koff is 0.000574 s⁻¹ and 0.000849 s⁻¹.
